From publication PMC11995724, “Antibiotic target discovery by integrated phenotypic and activity-based profiling of electrophilic fragments” (Cell chemical biology, 2025)
The whole screen tested about 3,200 compounds, of which about 75 (2%) showed an effect of 50% or more. Some of the results follow.

The molecules below were run on T1, S. aureus MSSA476. Conditions: relative growth, OD600, TSB; 25 µM; inhibitor.
T1 construct: MSSA476
Parameters: species or system S. aureus MSSA476 (TSB) or V. cholerae SAD30 (LB); 384-well bacterial growth screen at 25 uM, OD600 relative to DMSO control

| Compound | % of control remaining |
| --- | --- |
| C=CC(=O)NCCN(C)S(=O)(=O)c1cccs1 [2-A09, N-[2-(N-methylthiophene-2-sulfonamido)ethyl]prop-2-enamide] | 155.962% |
| CCN(CC)C(=O)c1cccc(NC(=O)CCl)c1 [5-I03, 3-(2-chloroacetamido)-N,N-diethylbenzamide] | 102.732% |
| O=C(CCl)NCCc1cccc(Cl)c1 [5-O05, 2-chloro-N-[2-(3-chlorophenyl)ethyl]acetamide] | 98.3607% |
| CCN(Cc1ccc(C#N)cc1F)C(=O)CCl [5-H08, 2-chloro-N-[(4-cyano-2-fluorophenyl)methyl]-N-ethylacetamide] | 105.282% |
| Cc1ccc(Cl)c(NC(=O)CCl)c1Cl [4-D10, 2-chloro-N-(2,6-dichloro-3-methylphenyl)acetamide] | 102.144% |
| CC(NC(=O)C(C#N)=Cc1ccco1)c1cccnc1 (stereo not shown) [9-K03, 2-cyano-3-(furan-2-yl)-N-[1-(pyridin-3-yl)ethyl]prop-2-enamide] | 94.0824% |
| CC(Cl)C(=O)NC1CCC(C)(C)c2ccccc21 (stereo not shown) [6-H21, 2-chloro-N-(4,4-dimethyl-1,2,3,4-tetrahydronaphthalen-1-yl)propanamide] | 85.3659% |
| N#CC(=Cc1cccc2c1OCO2)C(=O)Nc1cccc2ccccc12 [8-K12, 3-(1,3-dioxaindan-4-yl)-2-cyano-N-(naphthalen-1-yl)prop-2-enamide] | 100.581% |
| C=CC(=O)N1CCCc2c(OCC(N)=O)cccc21 [3-D22, 2-{[1-(prop-2-enoyl)-1,2,3,4-tetrahydroquinolin-5-yl]oxy}acetamide] | 126.426% |
| O=C(CCl)c1ccc2c(c1)-c1ccccc1C2 [10-H17, 2-chloro-1-(9H-fluoren-3-yl)ethan-1-one] | 1.875% |
| CC(Cl)C(=O)N1CCc2ccccc21 (stereo not shown) [5-H04, 2-chloro-1-(2,3-dihydro-1H-indol-1-yl)propan-1-one] | 77.9599% |
| C=CC(=O)N1CCCn2ncc(C3CC3)c21 [3-M15, 1-{3-cyclopropyl-4H,5H,6H,7H-pyrazolo[1,5-a]pyrimidin-4-yl}prop-2-en-1-one] | 105.877% |
| C=CC(=O)NC(C)Cc1cccn1C (stereo not shown) [3-M22, N-[1-(1-methyl-1H-pyrrol-2-yl)propan-2-yl]prop-2-enamide] | 89.8563% |
| O=C(CCl)NCc1ccc(OC(F)(F)F)cc1 [6-G08, 2-chloro-N-{[4-(trifluoromethoxy)phenyl]methyl}acetamide] | 87.7561% |
| N#CC(=Cc1ccc(Cl)cc1)C(=O)Nc1ccc2c(c1)OCCO2 [9-E22, 3-(4-chlorophenyl)-2-cyano-N-(2,3-dihydro-1,4-benzodioxin-6-yl)prop-2-enamide] | 81.1985% |
| C=CC(=O)N(C)CC(=O)NC1CCC(N2CCCCC2=O)CC1 (stereo not shown) [3-A06, N-methyl-N-({[4-(2-oxopiperidin-1-yl)cyclohexyl]carbamoyl}methyl)prop-2-enamide] | 109.708% |
| C=CC(=O)NC(C(N)=O)c1ccccc1F (stereo not shown) [2-H19, N-[carbamoyl(2-fluorophenyl)methyl]prop-2-enamide] | 120.453% |
| COc1ccc(C=C(C#N)C(=O)Nc2ccccc2C)cc1O [8-P15, 2-cyano-3-(3-hydroxy-4-methoxyphenyl)-N-(2-methylphenyl)prop-2-enamide] | 104.232% |
| CCc1ccc(NC(=O)C(C#N)=Cc2ccn(-c3ccccc3)n2)cc1 [8-K22, 2-cyano-N-(4-ethylphenyl)-3-(1-phenyl-1H-pyrazol-3-yl)prop-2-enamide] | 72.6971% |
| CCCCNC(=O)C(C#N)=Cc1cccc2ccccc12 [8-N13, N-butyl-2-cyano-3-(naphthalen-1-yl)prop-2-enamide] | 85.9751% |
| C=CC(=O)N(Cc1ccc2c(c1)CCC2)Cc1c(C)noc1C [1-L09, N-[(2,3-dihydro-1H-inden-5-yl)methyl]-N-[(3,5-dimethyl-1,2-oxazol-4-yl)methyl]prop-2-enamide] | 88.2637% |
| COc1cc(NC(=O)CCl)c(C)cc1[N+](=O)[O-] [4-M09, 2-chloro-N-(5-methoxy-2-methyl-4-nitrophenyl)acetamide] | 97.5703% |
| C=CC(=O)N1CCC(C(=O)NCCC2CCS(=O)(=O)C2)CC1 (stereo not shown) [2-H05, N-[2-(1,1-dioxo-1lambda6-thiolan-3-yl)ethyl]-1-(prop-2-enoyl)piperidine-4-carboxamide] | 100.957% |

| Compound | % of control remaining |
| --- | --- |
| C=CC(=O)N1CCC(C(=O)NC2CCCc3nc(C)ncc32)CC1 (stereo not shown) [3-I17, N-(2-methyl-5,6,7,8-tetrahydroquinazolin-5-yl)-1-(prop-2-enoyl)piperidine-4-carboxamide] | 114.584% |
| CCCCNC(=O)C(C#N)=Cc1ccc(C)s1 [9-J06, N-butyl-2-cyano-3-(5-methylthiophen-2-yl)prop-2-enamide] | 65.0187% |
| COc1ccc2cc(CN(C)C(=O)CCl)ccc2c1 [4-A19, 2-chloro-N-[(6-methoxynaphthalen-2-yl)methyl]-N-methylacetamide] | 115.865% |
| N#CC(=Cc1cnc2ccccn12)C(=O)NCc1ccccc1 [9-P18, N-benzyl-2-cyano-3-{imidazo[1,2-a]pyridin-3-yl}prop-2-enamide] | 88.3895% |
| C=CC(=O)Nc1cccc(-c2ccon2)c1 [3-L04, N-[3-(1,2-oxazol-3-yl)phenyl]prop-2-enamide] | 104.484% |
| N#CC(=Cc1ccc(OC(F)F)cc1)C(=O)N1CCCC1 [8-L22, 3-[4-(difluoromethoxy)phenyl]-2-(pyrrolidine-1-carbonyl)prop-2-enenitrile] | 104.896% |
| CC(Cl)C(=O)c1ccc(C(C)(C)C)cc1 (stereo not shown) [10-D14, 1-(4-tert-butylphenyl)-2-chloropropan-1-one] | 98.4375% |
| COc1cccc2cc(C=C(C#N)C(=O)Nc3ccc(C)cc3)oc12 [9-A17, 2-cyano-3-(7-methoxy-1-benzofuran-2-yl)-N-(4-methylphenyl)prop-2-enamide] | 102.472% |
| C=CC(=O)Nc1cccc(-c2nc(COC)no2)c1C [1-J08, N-{3-[3-(methoxymethyl)-1,2,4-oxadiazol-5-yl]-2-methylphenyl}prop-2-enamide] | 101.626% |
| CC(Cl)C(=O)Nc1ccc(F)cc1 (stereo not shown) [6-K15, 2-chloro-N-(4-fluorophenyl)propanamide] | 99.7073% |
| COc1cccc(NC(=O)C(C#N)=Cc2cccc(O)c2)c1 [8-P03, 2-cyano-3-(3-hydroxyphenyl)-N-(3-methoxyphenyl)prop-2-enamide] | 76.3485% |
| Cc1cc(C)n(CCCNC(=O)C(C)Cl)n1 (stereo not shown) [7-O19, 2-chloro-N-[3-(3,5-dimethyl-1H-pyrazol-1-yl)propyl]propanamide] | 98.2732% |
| Cc1ccc(NC(=O)C(C#N)=Cc2cccc(C(F)(F)F)c2)c(C)c1 [8-H11, 2-cyano-N-(2,4-dimethylphenyl)-3-[3-(trifluoromethyl)phenyl]prop-2-enamide] | 111.867% |
| CC(NC(=O)CCl)c1ccc(-c2ccccc2)cc1 (stereo not shown) [5-A17, N-(1-{[1,1'-biphenyl]-4-yl}ethyl)-2-chloroacetamide] | 97.9964% |
| CC1=C(C#N)C(=O)N(C)C(=O)C1=Cc1ccc(-c2ccccc2Cl)o1 [9-K18, 5-{[5-(2-chlorophenyl)furan-2-yl]methylidene}-1,4-dimethyl-2,6-dioxo-1,2,5,6-tetrahydropyridine-3-carbonitrile] | 64.7191% |
| CCC(=O)Nc1cccc(NC(=O)CCl)c1C [5-K04, N-[3-(2-chloroacetamido)-2-methylphenyl]propanamide] | 101.275% |
| C=CC(=O)Nc1cnn(CCF)c1 [1-E05, N-[1-(2-fluoroethyl)-1H-pyrazol-4-yl]prop-2-enamide] | 103.385% |
| C=CC(=O)N1CCN(c2nccn(C)c2=O)CC1 [3-P20, 1-methyl-3-[4-(prop-2-enoyl)piperazin-1-yl]-1,2-dihydropyrazin-2-one] | 100.653% |
| C=CC(=O)Nc1ccc(C(=O)N2CCC(S(=O)(=O)NC)C2)cc1 (stereo not shown) [3-O08, N-{4-[3-(methylsulfamoyl)pyrrolidine-1-carbonyl]phenyl}prop-2-enamide] | 86.7218% |
| C=CC(=O)N1CCOC2(CCCCCC2)C1 [1-L08, 1-{1-oxa-4-azaspiro[5.6]dodecan-4-yl}prop-2-en-1-one] | 128.703% |
| CC(Cl)C(=O)Nc1ccccc1[N+](=O)[O-] (stereo not shown) [4-G18, 2-chloro-N-(2-nitrophenyl)propanamide] | 124.631% |
| N#CC(=Cc1cccc(Cl)c1Cl)C(=O)NCc1ccco1 [8-P04, 2-cyano-3-(2,3-dichlorophenyl)-N-[(furan-2-yl)methyl]prop-2-enamide] | 92.6141% |
| CCN(C(=O)C(C)Cl)c1ccccc1 (stereo not shown) [4-P16, 2-chloro-N-ethyl-N-phenylpropanamide] | 96.0457% |
